Measurements from publication PMC4336329 (PLoS ONE, 2015).
The whole screen tested about 310,000 compounds, of which about 14,000 (4.5%) showed an effect of 50% or more. Effects have a minus sign here. The list shows a part of the results.

Biological target: human ether-à-go-go-related gene (hERG) potassium channel (human, UniProt Q12809)
Assay: primary screen, population patch clamp on CHO cells stably expressing hERG
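Also: peak tail current of the secondary pulse compared with the same well before compound.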

Sequence of human ether-à-go-go-related gene (hERG) potassium channel (Q12809 whole entry, looked up): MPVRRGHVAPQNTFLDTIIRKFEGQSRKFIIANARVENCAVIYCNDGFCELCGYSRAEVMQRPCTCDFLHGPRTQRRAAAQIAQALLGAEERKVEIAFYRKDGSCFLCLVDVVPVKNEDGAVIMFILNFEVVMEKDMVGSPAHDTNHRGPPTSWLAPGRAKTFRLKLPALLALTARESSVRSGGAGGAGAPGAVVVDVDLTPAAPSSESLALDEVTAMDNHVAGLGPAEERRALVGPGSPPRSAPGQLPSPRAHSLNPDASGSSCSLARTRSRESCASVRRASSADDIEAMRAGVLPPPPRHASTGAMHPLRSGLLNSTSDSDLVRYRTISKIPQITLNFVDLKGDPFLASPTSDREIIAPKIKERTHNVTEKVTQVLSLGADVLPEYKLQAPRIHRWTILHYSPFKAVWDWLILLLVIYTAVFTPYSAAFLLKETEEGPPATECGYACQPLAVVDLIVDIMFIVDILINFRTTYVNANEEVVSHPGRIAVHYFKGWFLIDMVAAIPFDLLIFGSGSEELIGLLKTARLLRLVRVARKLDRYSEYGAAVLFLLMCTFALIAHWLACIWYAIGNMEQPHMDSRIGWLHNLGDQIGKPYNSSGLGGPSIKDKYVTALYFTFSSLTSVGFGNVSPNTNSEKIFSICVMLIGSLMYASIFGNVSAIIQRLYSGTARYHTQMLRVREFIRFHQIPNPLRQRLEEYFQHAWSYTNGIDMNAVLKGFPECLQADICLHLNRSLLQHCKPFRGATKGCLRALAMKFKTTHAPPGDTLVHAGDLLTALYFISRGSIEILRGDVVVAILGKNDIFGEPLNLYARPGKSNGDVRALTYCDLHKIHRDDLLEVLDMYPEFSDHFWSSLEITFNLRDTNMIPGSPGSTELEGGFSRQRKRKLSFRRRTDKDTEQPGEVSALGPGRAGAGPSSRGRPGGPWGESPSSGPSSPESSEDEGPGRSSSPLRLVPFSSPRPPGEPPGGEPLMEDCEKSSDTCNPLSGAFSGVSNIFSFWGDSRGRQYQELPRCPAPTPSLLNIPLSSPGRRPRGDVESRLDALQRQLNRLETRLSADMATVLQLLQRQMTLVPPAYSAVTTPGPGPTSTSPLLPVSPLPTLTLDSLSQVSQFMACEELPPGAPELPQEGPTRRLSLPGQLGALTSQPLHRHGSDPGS

| SMILES | hERG current change (%, negative = inhibition) at 10uM |
| --- | --- |
| Cc1ccc(CSc2[nH]c(=O)ncc2C)cc1 | 10.7% |
| CCc1ccc(CN(Cc2cccnc2)C(=O)/C=C/c2ccc(OC)cc2)cc1 | -25% |
| Cc1cc(C)n(CC(=O)c2ccccc2)c(=O)c1C#N | 10.9% |
| O=C(CCNS(=O)(=O)c1ccccc1C(F)(F)F)NCCCc1ccccc1 | 1.16% |
| O=[N+]([O-])c1cc(S(=O)(=O)N2CCCC2)ccc1NN=C1CCCCC1 | 12.4% |
| NS(=O)(=O)c1ccc(N2N=C(c3ccccc3)CC2c2ccccc2)cc1 (stereo not drawn) | -3.51% |
| c1ccc2c(c1)NCC1CCCN21 (stereo not drawn) | -1.65% |
| O=c1c(-c2ccccc2Cl)c[nH]n1-c1ccccc1 | 20.2% |
| CSCCC(=O)N1CCCC(CNC(=O)c2ccccc2Cl)C1 (stereo not drawn) | 5.46% |
| COc1ccc2[nH]c(=O)c(CNc3ccc(C)cc3C)cc2c1 | -5.47% |
| CC1=C(C(=O)Nc2ccccc2)C(c2ccco2)C(C#N)=C(SCC(=O)Nc2cccc(C)c2C)N1 (stereo not drawn) | 17.9% |
| Cc1ccc([N+](=O)[O-])cc1NC(=O)CN(C)CCOc1ccccc1.O=C(O)C(=O)O | -21.1% |
| NC(=O)c1cc2ccccc2o/c1=N/NC(=O)c1cccc(F)c1 | -2.66% |
| COc1ccc(Cc2n[nH]c(=O)c3ccccc23)cc1OC | -14% |
| Cn1nc(N)c2c1N=P(N1CCOCC1)(N1CCOCC1)N=C2c1ccccc1 | 0.201% |
| O=C(NCC1CC1)C1(C(F)(F)F)CC(CCc2ccccc2)CCCO1 (stereo not drawn) | 3.42% |
| Cc1ccc(CC(=O)Nc2cccc([N+](=O)[O-])c2)cc1 | 15.8% |
| CC(NC(=O)CNC(=O)c1cccc(Cl)c1)c1ccccc1 (stereo not drawn) | 6.56% |
| COc1ccc(CN2CCN(CCSc3ccc(C)cc3)CC2)c(OC)c1OC.O=C(O)C(=O)O | -58.5% |
| Cc1ccccc1-n1c(-c2ccncc2)n[nH]c1=S | 10.6% |
| Cc1cc(C(=O)COC(=O)c2ccc[nH]c2=O)c(C)n1C1CC1 | -3.04% |
| COc1cc(C(=O)NNC(=O)c2cc(C)[nH]n2)cc(OC)c1OC | 18.8% |
| O=c1nc2ccccn2c2ccc(S(=O)(=O)N3CCCCC3)cc12 | 16.6% |

| SMILES | hERG current change (%, negative = inhibition) at 10uM |
| --- | --- |
| CCOc1cc(-c2nc(-c3ccc(OC)cc3)no2)cc(OCC)c1OCC | 13% |
| CCn1cc(/C=N/NS(=O)(=O)c2ccc(OC)cc2)c(C)n1 | 13.2% |
| CCOC(=O)c1cc(-c2ccccc2)n[nH]1 | 13.1% |
| O=C1CC(N2CCSCC2)C(=O)N1c1ccccc1 (stereo not drawn) | 22.2% |
| Cn1c(N)c(C(=O)CCl)c(=O)n(Cc2ccccc2)c1=O | 2.2% |
| O=C(O)CCC(=O)N(Cc1ccco1)c1nc(-c2ccccc2)cs1 | -36.9% |
| CC(C)Oc1ccc(C(=O)CCN2CCOCC2)cc1 | 8.92% |
| CCOc1ccc(N2CC(C(=O)Nc3ccc(S(=O)(=O)NCC4CCCO4)cc3)CC2=O)cc1 (stereo not drawn) | 5.78% |
| O=C(CSc1nnc2ccc(-c3ccccn3)nn12)NCCc1ccccc1 | -6.49% |
| Cn1c(NN)nc2ccccc2c1=O | 13.6% |
| Cc1ccsc1/C=N/Nc1ccc(C(=O)O)cc1 | 19% |
| CCn1c2ccccc2c2cc(NS(=O)(=O)c3ccccc3C)ccc21 | 6.27% |
| CCOc1ccc(NC(=O)[C@@H](NC(=O)c2ccccc2Br)C(C)C)cc1 | -5.29% |
| OC1CCCN(c2c3c(nc4cc(-c5cccc(F)c5)nn24)CCCC3)C1 (stereo not drawn) | -48% |
| CCOc1ccccc1CNCCN1CCOCC1.Cl | 14.6% |
| CCc1ccc(N2C(=O)CN(Cc3cc(OC)c(OC)c(OC)c3)C2=S)cc1 | -8.49% |
| COc1ccc(OC)c(C2C(C(C)=O)=C(O)C(=O)N2CCN2CCOCC2)c1 (stereo not drawn) | -6.92% |
| CCOc1ccc(NC(=O)COC(=O)C2C3CC4OC(=O)C2C4C3)cc1 (stereo not drawn) | 16.2% |
| COc1cccc(/C=C/C(=O)OCC(=O)Nc2ccc(N3CCOCC3)cc2)c1OC | 34.9% |
| CCOc1ccc(NC(=O)c2cc3ccccc3cc2OC)cc1 | 23.7% |
| O=C(Nc1cc2c(cc1Br)OCCO2)c1cccnc1 | 1.58% |
| CC(C)N(Cc1nc(-c2ccc(Cl)cc2)no1)C(=O)CN(C)S(=O)(=O)c1ccc(Cl)cc1 | -7.68% |
| Cc1ccc(C2=NS(=O)(=O)N(C)C(C(=O)NCc3ccco3)=C2)cc1 | -58.4% |

| SMILES | hERG current change (%, negative = inhibition) at 10uM |
| --- | --- |
| O=C(NCc1ccccc1)c1ccc2nc(N3CCOCC3)sc2c1 | -5.89% |
| CC(C)c1ccc(S(=O)(=O)N2CCN(CC(=O)Nc3ccc4c(c3)OCO4)CC2)cc1 | -13.9% |
| CC(C)OC(=O)Cn1cc(C#N)c2ccccc21 | 5.25% |
| CCOc1ccccc1NC(=O)Cn1nnc(C(=O)Nc2ccc(C)cc2)c1N | 17.5% |
| CCOc1ccc(Nc2nc(C)cc(C)c2C#N)cc1 | 2.66% |
| NS(=O)(=O)c1ccc(NC(=O)COC(=O)COc2ccccc2)cc1 | 20.3% |
| COC(=O)C1=C(c2ccc(-c3ccccc3)c(F)c2)C[C@@H]2CC[C@H]1N2C(=O)NCc1cccc2ccccc12 | 23.3% |
| COC(=O)CCCC1=CC2=CC(=O)C(C)(OC(=O)c3cccs3)C(=O)C2=CN1CCCCO (stereo not drawn) | 3.74% |
| Cc1nc2cc(NS(=O)(=O)c3ccccc3F)ccc2s1 | -5.78% |
| CCOC(=O)c1c(NC(=O)c2cccs2)sc(CC)c1-c1cccs1 | -11% |
| COc1nc(/C(N)=N/O)nc(N2CCCCC2)n1 | 9.95% |
| Cc1ccc(NC(=O)C2C3C=CC(O3)C2C(=O)O)c(C)c1 (stereo not drawn) | 10% |
| COc1cccc(CNC(=O)c2ccc(NC3=NC4CS(=O)(=O)CC4S3)cc2)c1 (stereo not drawn) | 1.43% |
| COc1cccc(-c2noc(N)c2C#N)c1 | -11.6% |
| COc1ccccc1NS(=O)(=O)c1cccc(NC(=O)c2cc3ccccc3oc2=O)c1 | 40.8% |
| COc1nc(C#N)c(N2CCOCC2)o1 | 8.06% |
| COC(=O)c1[nH]c2ccccc2c1NC(=O)CN1CC(C)OC(C)C1 (stereo not drawn) | 0.295% |
| COc1ccc(C2CC(C)=NN2C=O)cc1OC (stereo not drawn) | 19.6% |
| Cc1ccc(C(=O)Nc2ccccc2C(=O)NCc2ccccc2)cc1 | 5.63% |
| CCOc1ccc(N2C(=O)CC(N(O)c3ccccc3)C2=O)cc1 (stereo not drawn) | 2.96% |
| COc1ccc(-c2cc(=Nc3ccc(C(=O)O)cc3)c3cc(C)ccc3o2)cc1 | 12.7% |
| Cc1ccc(C(=O)O)cc1NC(=O)Nc1ccc2c(c1)OCO2 | 30.3% |
| CCCCC[C@H]1CN(CCCC)C(=O)[C@@H]1CC(=O)NCc1ccc(OC)cc1 | -71% |

| SMILES | hERG current change (%, negative = inhibition) at 10uM |
| --- | --- |
| CC(C)CCNC(=O)C(c1ccc(O)cc1)N(Cc1ccco1)C(=O)CCC(=O)Nc1nccs1 (stereo not drawn) | -41.2% |
| CCN(CC)c1ccc(/C=N/n2c(C)cc(C)cc2=O)cc1 | -5.07% |
| C1CCc2c(nc3nnnn3c2NCC2CC2)C1 | -5.16% |
| CC(C)(C)c1ccc(/C=C/C(=O)NCCCN2CCOCC2)cc1 | -35.9% |
| N#Cc1cccc2c1-c1ccccc1/C2=N/NC(N)=O | 7.49% |
| CCCCN(C(=O)c1cccc(S(=O)(=O)N2CCCCC2)c1)C1CCS(=O)(=O)C1 (stereo not drawn) | -52.1% |
| CC1CN(C(=O)COC(=O)c2ccc(F)cc2Cl)CC(C)O1 (stereo not drawn) | 2.56% |
| Cc1cc(C)n(-c2nc3ccccc3n3cnnc23)n1 | -16.1% |
| O=C(c1ccc(NC2=NC3CS(=O)(=O)CC3S2)cc1)N1CCN(c2ccc(F)cc2)CC1 (stereo not drawn) | 6.4% |
| O=C(NCc1cccc(F)c1)c1ccc2nc(N3CCOCC3)sc2c1 | -10.7% |
| CCCC(=O)NCCCc1nc2ccccc2n1C(C)C | -14.3% |
| O=C(NCc1ccncc1)C12CC3CC(CC(Cl)(C3)C1)C2 | 1.83% |
| CCOC(=O)C1CCCN(C(=O)c2cc3cc(OC)c(OC)cc3[nH]2)C1 (stereo not drawn) | 14.1% |
| Cc1cc(NC(=O)CN2C(=O)[C@@H]3[C@H](C2=O)[C@@H]2C[C@H]3C(Br)C2Br)no1 (stereo partly drawn) | 7.77% |
| CC(CNC(=O)CN1C(=O)C(=O)N(C2CCCC2)C1=O)c1ccccc1 (stereo not drawn) | -3.6% |
| Cc1ccc(N2CC(O)=C(c3nc4ccccc4c(=O)[nH]3)C2=N)cc1C | 1.33% |
| COc1cccc(-c2nc(-c3ccc(NC(=O)c4cccs4)cc3)no2)c1 | 14.1% |
| COc1cc(OC)c(S(=O)(=O)NCc2ccco2)cc1S(=O)(=O)NCc1ccco1 | -13.5% |
| CC(/C=N\NC(=O)c1ccc2c(c1)OCO2)c1ccccc1 (stereo not drawn) | 11.4% |
| CC(=O)Nc1ccc(S(=O)(=O)Nc2nc3ccccc3nc2Nc2ccc(S(N)(=O)=O)cc2)cc1 | -3.54% |
| O=C(NC(=S)Nc1nc(-c2ccccc2)cs1)c1cccs1 | 18.1% |
